# Results reported in PubChem BioAssay AID686978 (National Center for Advancing Translational Sciences (NCATS), 2013).
# “And” between values parts separate entries of the source, which are not always exact repeats. Equal entries are not always repeated. Hit rate of the full screen: of about 420,000 compounds, about 64,000 (15%) were called active. Inconclusive results, whose numbers are uncertain, are shown with a selection of clear calls. Calls come from the whole dose curve; as a rule, active = well fitted inhibition curve with a large enough effect; inconclusive = small, poorly fitted or top-dose-only effect; inactive = flat fitted curve, though single readings scatter. Potencies of inconclusive entries are left out as doubtful fits.
# Assay: qHTS for Inhibitors of human tyrosyl-DNA phosphodiesterase 1 (TDP1): qHTS in cells in absence of CPT; note: nearly all actives have a fitted effect of over 55% in size
# Settings: DT40 Tdp1-/- hTDP1 cells, no CPT, ATP luminescence, 48 h; activity change, negative = growth inhibition: at 46.2 µM (top of the series) unless noted
# Outline: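 Cells were dispensed at 400 per well, compounds added by pin tool, plates incubated ≥48 hr at 37 °C, then CellTiter-Glo added for 30 min at room temperature before luminescence reading. Line: DT40 Tdp1-/- complemented with hTDP1; camptothecin omitted.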
# % is set by controls: 0 for no effect and ±100 for the full control effect; potency is the fitted concentration of half-maximal effect; tags give direction and shape of the fitted curve.
Compound,Potency,"activity change, negative = growth inhibition"
N=C(N)SCCN,active: 21.1 µM and active: 4.11 µM and active: 14.6 µM,–
CCCS(=O)(=O)N1CCCC(C(=O)NCCCN2CCN(c3ccccc3F)CC2)C1 (centres undefined),"inconclusive [inhibitor, single point]",–
O=C1/C(=C/c2cccc(F)c2)CSc2sccc21,"inconclusive [inhibitor, partial curve, poor fit]",–
COc1ccc(Nc2nc(-c3ccccc3)nc3ccccc23)cc1,"inconclusive [inhibitor, single point]",–
CCN(CC)c1ccc(/C=C(/C#N)c2nc3ccccc3[nH]2)c(OC(C)C)c1,active: 11.6 µM,–
CCCN(C(=O)COC(=O)CSc1ccc([N+](=O)[O-])cc1)C1CCS(=O)(=O)C1 (centres undefined),"inconclusive [inhibitor, single point]",–
CCn1c(=O)c2c(nc(SCC(=O)Nc3ccccc3)n2C)n(C)c1=O,–,inactive: -26.8%
COc1ccc(CN2C(=O)CN(C3CCCCCC3)C(=O)C2c2ccc(OC)c(OC)c2)cc1 (centres undefined),–,inactive: -23.7%
COc1ccc(NC(=O)CCS(=O)(=O)c2nc(-c3ccc4c(c3)OCO4)cc(C(F)(F)F)n2)c(OC)c1,"inconclusive [inhibitor, partial curve, poor fit]",–
CCCc1cc(=O)oc2c(CN3CCOCC3)c(O)ccc12,"inconclusive [inhibitor, single point]",–
CC(CNC(=O)CCCn1c(=O)c2cccn2c2ccccc21)c1ccccc1 (centres undefined),"inconclusive [inhibitor, single point]",–
COc1ccc(C(C)=O)cc1COc1ccc(Cl)cc1Cl,–,inconclusive: -31.2% [inhibitor]
COc1cc(C=C(C#N)C(=O)c2ccccc2)cc(OC)c1OC,–,inactive: -1.74%
Cc1ccccc1NC(=O)CSc1nc2c(c(=O)n(C)c(=O)n2C)n1C,–,inactive: 7.41%
CCN(C(=O)c1cnc(N2CCOCC2)c2ccccc12)c1cc(C)ccc1C,"inconclusive [inhibitor, single point]",–
CC(C)N(Cc1ccccc1)C(=O)CN1C(=O)COc2ccc(S(=O)(=O)N3CCCCCC3)cc21,active: 13 µM,–
N#Cc1c(SCc2c(Cl)cccc2Cl)nc(N)[nH]c1=S,"inconclusive [inhibitor, single point]",–
CCSc1nc2sc3c(c2c(=O)n1-c1ccccc1)CCN(C)C3,"inconclusive [inhibitor, single point]",–
CCOP(=O)(OCC)/C(=N/OC(=O)c1ccc(OC)cc1)C(N)=O,"inconclusive [inhibitor, partial curve, poor fit]",–
